Measured values taken from ChEMBL document CHEMBL4888484, “Replenishing the malaria drug discovery pipeline: Screening and hit evaluation of the MMV Hit Generation Library 1 (HGL1) against asexual blood stage Plasmodium falciparum ,using a nano luciferase reporter read-out” (2022).
Screen size: about 150,000 compounds; about 540 (0.36%) showed an effect of 50% or more. Some of the results follow.

What follows are molecules tested on Plasmodium falciparum (assay: Primary screen in NF54 nanoGlo assay, in single point, at 2uM, 72h; a lower Z score goes with more inhibition). Conditions: timepoint 72 hour.
Type: functional, Erythrocyte
For `CN1CCN(c2nc(N3CCCCC3)nc3c2CN(C(=O)COc2ccccc2)CC3)CC1`, the “% Inhibition” value was 0% and the Z score was 0.02. For `CCn1nc(C(=O)N2C[C@@H]3CC[C@H]2CN(CCCc2ccccc2)C3)cc1C`, the “% Inhibition” value was -11% and the Z score was 2.12. With `CS(=O)(=O)Cc1nc(-c2ccc3[nH]c(=O)[nH]c3c2)cs1` the “% Inhibition” value was 4% and the Z score was -0.68. With `Cc1nc2ccccc2n1C(=O)COc1ccc(Cl)cc1` the “% Inhibition” value was -1% and the Z score was 0.09. With `CC(=O)OC1CS(=O)(=O)CC1N(C(C)=O)c1ccc(Cl)cc1` (stereo not drawn) the “% Inhibition” value was 4% and the Z score was -0.59. `O=C(C[C@@H]1C=CCC1)N1CCCCCCC1` was tested, and the “% Inhibition” value was 6% and the Z score was -0.81. In the case of `C=CCN(CC=C)C(=O)c1ccc(OCC)c(OCC)c1`, the “% Inhibition” value is reported as -6% and the Z score is reported as 0.67. In the case of `Cc1cc(C)c(CN(C)C2C3CCOC3C2(C)C)c(C)c1` (stereo not drawn), the “% Inhibition” value is reported as -9% and the Z score is reported as 1.19. `CCOC(=O)c1c(C)n[nH]c1NCc1ccccc1` was tested, and the “% Inhibition” value was 4% and the Z score was -0.48. For `COc1ccc(F)c(CN2CCC[C@@]3(CCN(CCn4cc(Cl)cn4)C3)C2)c1`, the “% Inhibition” value was 6% and the Z score was -0.59. For `Cn1nc(C(=O)NCc2n[nH]c3c2CCC3)c2ccccc2c1=O`, the “% Inhibition” value was -8% and the Z score was 1.56. For `COc1ccc(S(=O)(=O)N(Cc2ccco2)Cc2c(-c3ccccc3)nn(C)c2Oc2ccccc2)cc1`, the “% Inhibition” value was -1% and the Z score was 0.19. In the case of `Cc1onc(NS(=O)(=O)c2cccc3c2OCCC3)c1Cl`, the “% Inhibition” value is reported as -7% and the Z score is reported as 1.53. In the case of `Cc1cnc(CN2CC3(CCC2=O)CCN(C(=O)Nc2ccccc2)CC3)cn1`, the “% Inhibition” value is reported as 2% and the Z score is reported as -0.31. For `CC1CCN(c2ncnc(Oc3ccc(F)cc3)c2N)CC1`, the “% Inhibition” value was -6% and the Z score was 0.86. In the case of `O=C(c1ccco1)N1CCN(Cc2cnc3n2CCOC3)CC1`, the “% Inhibition” value is reported as -2% and the Z score is reported as 0.2. With `Cc1cccc(CN(CC2CCN(C3Cc4ccccc4C3)CC2)C[C@H]2CCCO2)n1` the “% Inhibition” value was -1% and the Z score was 0.18. `CCCc1nc(C)c(CNC(=O)Nc2cccc(CN)c2)s1` was tested, and the “% Inhibition” value was -3% and the Z score was 0.44. In the case of `Cc1c(C(=O)[C@H](C#N)c2nnc(N3CCOCC3)n2-c2ccccc2)nnn1-c1ccc(F)cc1`, the “% Inhibition” value is reported as -7% and the Z score is reported as 1.18. With `COc1ccc(-c2cc(C(F)(F)F)n(-c3cc(C)nc(N)n3)n2)cc1` the “% Inhibition” value was -8% and the Z score was 1.24. For `FC(F)(F)c1ccc(N[C@H]2CCc3[nH]ncc3C2)nc1`, the “% Inhibition” value was -18% and the Z score was 1.61. For `Nc1cc(-c2cc3ccccc3o2)ccn1`, the “% Inhibition” value was 3% and the Z score was -0.44. `CC(C)(C)OC(=O)N1CCC2C(CCCN2C(=O)NCCC#N)C1` (stereo not drawn) was tested, and the “% Inhibition” value was 7% and the Z score was -0.98. In the case of `CCCCN1CCN(C(=O)c2cccc3cnccc23)[C@H]2CS(=O)(=O)C[C@H]21`, the “% Inhibition” value is reported as -13% and the Z score is reported as 1.55.
